# Assay results: the BET-seq Pho4 binding data (Le et al. 2018)
# Some of the results follow. Values were computed here from the reads of four pooled replicates and scatter widely.
# Target: T1, Pho4 (S. cerevisiae) (UniProt P07270)
# T1 sequence: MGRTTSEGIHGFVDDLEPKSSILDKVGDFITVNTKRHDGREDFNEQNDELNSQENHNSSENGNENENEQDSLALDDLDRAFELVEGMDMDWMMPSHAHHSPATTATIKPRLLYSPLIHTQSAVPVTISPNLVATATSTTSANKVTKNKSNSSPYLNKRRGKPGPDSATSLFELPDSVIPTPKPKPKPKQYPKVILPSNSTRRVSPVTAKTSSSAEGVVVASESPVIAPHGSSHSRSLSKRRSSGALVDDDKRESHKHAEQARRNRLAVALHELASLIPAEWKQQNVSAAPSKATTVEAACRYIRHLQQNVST
# Assay: relative binding free energy (BET-seq); higher = weaker binding
# Conditions: reference: library average
row,Sequence,relative binding free energy [kJ/mol]
1,TTGCTCACGTGTAGGA,0.586
2,ATAAGCACGTGACGTG,0
3,TGGTGCACGTGGCGCA,-1.17
4,AAATTCACGTGGGAGG,0.628
5,GGGGGCACGTGCCCTG,-1.09
6,GGTGGCACGTGCTTGT,-0.46
7,GGTCTCACGTGTAGTA,1.09
8,TGCTACACGTGGGCTG,-0.293
9,ATTGGCACGTGCGTCG,-0.837
10,CGCGTCACGTGTGGCT,0.586
11,GGGGCCACGTGTGAAT,0.0837
12,GGTAGCACGTGTGTAC,0.377
13,CGGTTCACGTGTCTGT,1.42
14,GGGGGCACGTGAGATA,0.586
15,TTGGACACGTGTGTCG,0.502
16,AATGTCACGTGGGAAA,-0.167
17,TAAATCACGTGAATGG,1
18,AAAATCACGTGGGTTG,0.293
19,GAGTTCACGTGAGGTC,1.97
20,GCTGGCACGTGTGTGA,0.0837
21,GCTCGCACGTGATGGG,0.837
22,ATGTTCACGTGTTCAG,1.21
23,TCGAGCACGTGTGTAT,-0.293
24,ATGAGCACGTGGCAGG,-1
25,GGTTCCACGTGTGGGC,0.711
26,TCAGACACGTGATGGT,1.05

row,Sequence,relative binding free energy [kJ/mol]
1,GATGACACGTGTTGTT,0.544
2,GAATGCACGTGAGGGT,1.3
3,GTTTGCACGTGTTAGA,0.335
4,TGCTACACGTGCGGTG,0.293
5,TACGTCACGTGCGGTG,0.0418
6,CTATGCACGTGAGAGG,0.711
7,TGCGGCACGTGTGCTT,-0.46
8,GGTTGCACGTGTTACA,-0.293
9,TGGGGCACGTGTCCTG,-0.669
10,TCGGTCACGTGTGGTC,0.753
11,TTTCACACGTGGTGTA,-0.46
12,ATCATCACGTGAGGTG,0.837
13,ATTCTCACGTGGGTCG,0.544
14,GCGTTCACGTGACGTT,1.88
15,AGTGGCACGTGCATCG,-0.418
16,GGGGGCACGTGTTTAA,-0.46
17,GGTTTCACGTGGAGCT,0.293
18,TGTGGCACGTGGGAGC,-0.92
19,TAATGCACGTGTGTAT,-0.209
20,TGTTCCACGTGGTGGA,-0.0837
21,TTGGTCACGTGATGGC,1.88
22,TTGAACACGTGCTGGT,-0.46
23,TGTAACACGTGTGAAG,0.126
24,TTGGTCACGTGAGCCT,1.09
25,GAAGGCACGTGTTATT,0.167
26,AACTTCACGTGAGGGG,1.88

row,Sequence,relative binding free energy [kJ/mol]
1,TGAATCACGTGGGTGA,-0.209
2,TATAGCACGTGTGATA,0
3,TTTTTCACGTGCTGCG,1.26
4,AGTATCACGTGAAGGC,1.26
5,AGGCTCACGTGAGGAG,0.711
6,GGTATCACGTGTTATA,0.209
7,TGTTGCACGTGCAGAG,-0.377
8,GGTTGCACGTGGATGC,0.126
9,GTCGTCACGTGCTTGT,0.418
10,AGGCTCACGTGTGTGC,1.21
11,AAATGCACGTGTAAGG,0.46
12,GTCGTCACGTGCTTGG,0.46
13,GTTTTCACGTGTTTAC,1.3
14,TAACTCACGTGGGAGT,0.92
15,TAACTCACGTGTTTTT,0.669
16,TACGTCACGTGAGGTA,1.13
17,GTTATCACGTGCTGGG,1.34
18,TAGCACACGTGTTGTA,0.251
19,TGGAGCACGTGTTGTG,-0.46
20,GCGGGCACGTGGGACG,-0.753
21,GGGTTCACGTGAGTCA,1.3
22,AGTGTCACGTGAAGAT,0.293
23,TTGGACACGTGATGAA,0.502
24,AGGATCACGTGTATTT,0.502
25,ACGTGCACGTGTTAGT,-0.795
26,TGTAGCACGTGTATCG,0.209

row,Sequence,relative binding free energy [kJ/mol]
1,CTGAGCACGTGTGGTG,-0.251
2,TTAGGCACGTGCACGT,-0.628
3,GTTTTCACGTGGTAAT,1.13
4,GGTTGCACGTGGTAGG,-0.251
5,TTGTCCACGTGGTGGC,-0.126
6,GAGGGCACGTGGCGGT,-0.209
7,TATGTCACGTGGAATC,1.34
8,TTGCGCACGTGTGCTG,-1
9,AAAGACACGTGTGTAT,-0.0418
10,CTGCTCACGTGTTGGG,0.795
11,TGTATCACGTGGGCGC,0.251
12,TTGTTCACGTGTAGGG,1.17
13,TCATGCACGTGTATAT,-0.0837
14,CGTCTCACGTGGTGTG,0
15,TATGGCACGTGTGCGC,-0.377
16,GGATACACGTGTATGT,0.251
17,AGGTGCACGTGCTTAA,0.126
18,GATAGCACGTGGTTTA,0.251
19,GATATCACGTGTGGTG,1
20,TGGTCCACGTGTTGAG,0.251
21,CAGGTCACGTGAGGAG,1.34
22,TAGTGCACGTGCTTTG,-0.92
23,TTGCGCACGTGATGAG,0.293
24,TTCTGCACGTGGTCTG,-0.0418
25,TGGAGCACGTGTAGAG,-0.669
26,TCATACACGTGTGTTT,0.126

row,Sequence,relative binding free energy [kJ/mol]
1,TGTAGCACGTGATTTG,0.335
2,GATTACACGTGGGTGT,0.544
3,AATTTCACGTGGAAGA,1.8
4,TGGCGCACGTGGTTAA,-0.753
5,GGTGCCACGTGTTTGT,0
6,TTGTGCACGTGGTTGA,-0.126
7,GTTTGCACGTGAGCGA,0.544
8,GAGGGCACGTGTTAGC,-0.209
9,TTTAGCACGTGGAGGC,-0.544
10,GTTCGCACGTGTGGAT,0.251
11,TCTTTCACGTGTTGGG,1.21
12,TAGATCACGTGTTGGT,0.46
13,TAGAGCACGTGACTGT,0.167
14,TAAAGCACGTGCGGGT,-0.711
15,TTATGCACGTGGTTTT,-0.126
16,TTGAGCACGTGTGTCG,-0.126
17,AGAAGCACGTGGTGCG,-0.126
18,GTTAACACGTGGCTTG,-0.126
19,AATTGCACGTGTATTC,0.46
20,TTGAACACGTGAAGGA,1.17
21,TTAGGCACGTGAAATA,0.335
22,AGTTGCACGTGTGATA,0.377
23,ATTGTCACGTGATGGC,0.669
24,GCAGTCACGTGTGGGG,0.586
25,ATGATCACGTGGAGAT,0.502
26,GCTAGCACGTGGGTTT,-0.46

row,Sequence,relative binding free energy [kJ/mol]
1,GGGATCACGTGTGTTA,1.26
2,TTCGACACGTGTTAGG,0.46
3,TGCTGCACGTGGTTAT,-0.502
4,GTACTCACGTGTGGGA,0.962
5,GTTTGCACGTGAAGTG,1.51
6,CAGAGCACGTGGAGGT,-0.711
7,GTCTTCACGTGTTGGA,1.26
8,ATATGCACGTGGGATG,-0.837
9,GGAATCACGTGTTATG,0.92
10,TAGTTCACGTGAATTT,1.46
11,TTCTTCACGTGAGGTA,1.59
12,TATTACACGTGTAGTT,1.09
13,AGTATCACGTGGTCGC,0.418
14,AGCCTCACGTGTGGTT,0.962
15,AAGGGCACGTGTTCGA,0.0418
16,TATGCCACGTGTTCGG,-0.126
17,GTGAGCACGTGGGGAT,-0.586
18,TCGTTCACGTGTAGGT,1.09
19,TAAAGCACGTGATGTA,0.0418
20,TTCGTCACGTGATATG,0.711
21,TTTGGCACGTGATAGC,-0.377
22,GTATTCACGTGTTATA,1.05
23,CTATGCACGTGTTAGT,-0.377
24,AGGCGCACGTGCGTGG,-0.879
25,ATGGTCACGTGATCTG,0.669
26,TAATACACGTGGGTGT,-0.962

row,Sequence,relative binding free energy [kJ/mol]
1,AGGGTCACGTGTATCA,0.753
2,GGGTGCACGTGCCAGG,-0.795
3,TGTTTCACGTGTATCG,1.17
4,GTTGTCACGTGTACAT,0.377
5,TGGTTCACGTGCGCAG,1.46
6,CGGGCCACGTGGAGGT,0.209
7,CATATCACGTGTAGGG,0.711
8,GGAAACACGTGTAGTT,-0.0418
9,ATGGTCACGTGGTCAA,-0.167
10,GGGAACACGTGAGGTT,1.76
11,GGTTGCACGTGATTAG,0.753
12,TGTATCACGTGTTTAG,0.753
13,CGTAGCACGTGGATAT,0.0418
14,ACTTGCACGTGTCTTT,0.377
15,TGGTTCACGTGTGAAC,0.879
16,AACTACACGTGGTGGG,-0.0837
17,GAATGCACGTGCTGTT,-0.209
18,ATTGACACGTGCCGGG,-0.251
19,GGTATCACGTGTATGT,0.92
20,GATGACACGTGGGGCG,0.293
21,TGAGTCACGTGGAATG,0.962
22,TTTCGCACGTGTAGTA,-0.0418
23,TTGGTCACGTGACGGC,1.59
24,TGGCGCACGTGCTTGT,-0.962
25,TAGTGCACGTGAGTTT,0.962
26,CGTAACACGTGGAGTT,-0.0418

row,Sequence,relative binding free energy [kJ/mol]
1,GTGAACACGTGCGGTA,0.251
2,AAGGGCACGTGAATGG,0.711
3,TATTACACGTGAGTGT,1
4,TTATACACGTGATATG,0.293
5,TTCAGCACGTGAATTG,0.544
6,GCCTCCACGTGGGGGG,-0.0837
7,AGGTTCACGTGGAGGG,1.09
8,TCGCTCACGTGTGTTT,0.795
9,TGTCTCACGTGAATGT,1.09
10,ATTTCCACGTGGTAGT,-0.628
11,GGGGACACGTGTCTGT,0.628
12,GGTAGCACGTGGCGGA,-0.46
13,ATCAGCACGTGGGAGG,-0.795
14,CAGTGCACGTGGTGGC,-0.418
15,GTAGACACGTGTTATG,-0.335
16,TGGTTCACGTGTTCGT,1.05
17,GAAGGCACGTGGACGT,0.544
18,GTGGGCACGTGGTGCG,-0.628
19,TGCGGCACGTGATTTT,0
20,ACTTTCACGTGATAGT,0.962
21,AGTTACACGTGTGGCG,0.335
22,GTTTTCACGTGCGGTG,1.72
23,TTTGACACGTGGTGTT,-0.0837
24,TAGGTCACGTGGTACT,-0.251
25,CATGTCACGTGTCGGG,0.544
26,TATTGCACGTGGAGGT,-0.0418

row,Sequence,relative binding free energy [kJ/mol]
1,AGCATCACGTGGTTAG,0.46
2,GATAGCACGTGGTCGT,-0.251
3,CGTAACACGTGATAGG,0.837
4,TGAAGCACGTGGACGG,-0.502
5,GCGTGCACGTGGGAGC,-0.0837
6,GGTGACACGTGACGGC,0.879
7,GTGCTCACGTGTGTTG,1.34
8,ATTTACACGTGCAAGG,0.837
9,CTTAGCACGTGTGGTC,-0.502
10,AGGGCCACGTGAGGTT,-0.209
11,TTCTGCACGTGTGAAT,0.293
12,AGCGTCACGTGGCGAG,0.126
13,TGATGCACGTGGTGGT,0.0418
14,TTAAGCACGTGTCTGG,-0.669
15,TTGGGCACGTGAAGAG,0.669
16,TGATCCACGTGAGGGT,0.92
17,TAGGGCACGTGGTAGG,-1
18,GGTGACACGTGTTTAA,0.251
19,ATTTTCACGTGCTGCT,0.586
20,GGCGTCACGTGTTTCT,1.13
21,GTTTTCACGTGCTCTT,0.879
22,GGATGCACGTGTCGGC,0.209
